Reference: article PMC6919601, “Identification of Plasmodium dipeptidyl aminopeptidase allosteric inhibitors by high throughput screening” (PLoS ONE, 2019)
Out of some 110,000 compounds screened, about 230 (0.21%) showed an effect of 50% or more. This is one part of the list.

Each compound was assayed against DPAP1 (Plasmodium falciparum, UniProt Q8IIJ9) (assay: primary screen, percent inhibition; read by cleavage of a fluorogenic dipeptide substrate; higher = more effect of the substance).
Set-up: species or system P. falciparum D10 trophozoite lysates; single well
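Further: 30 min substrate incubation versus DMSO and 10 µM JCP410 controls.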

DPAP1, sequence (Q8IIJ9 whole entry, looked up): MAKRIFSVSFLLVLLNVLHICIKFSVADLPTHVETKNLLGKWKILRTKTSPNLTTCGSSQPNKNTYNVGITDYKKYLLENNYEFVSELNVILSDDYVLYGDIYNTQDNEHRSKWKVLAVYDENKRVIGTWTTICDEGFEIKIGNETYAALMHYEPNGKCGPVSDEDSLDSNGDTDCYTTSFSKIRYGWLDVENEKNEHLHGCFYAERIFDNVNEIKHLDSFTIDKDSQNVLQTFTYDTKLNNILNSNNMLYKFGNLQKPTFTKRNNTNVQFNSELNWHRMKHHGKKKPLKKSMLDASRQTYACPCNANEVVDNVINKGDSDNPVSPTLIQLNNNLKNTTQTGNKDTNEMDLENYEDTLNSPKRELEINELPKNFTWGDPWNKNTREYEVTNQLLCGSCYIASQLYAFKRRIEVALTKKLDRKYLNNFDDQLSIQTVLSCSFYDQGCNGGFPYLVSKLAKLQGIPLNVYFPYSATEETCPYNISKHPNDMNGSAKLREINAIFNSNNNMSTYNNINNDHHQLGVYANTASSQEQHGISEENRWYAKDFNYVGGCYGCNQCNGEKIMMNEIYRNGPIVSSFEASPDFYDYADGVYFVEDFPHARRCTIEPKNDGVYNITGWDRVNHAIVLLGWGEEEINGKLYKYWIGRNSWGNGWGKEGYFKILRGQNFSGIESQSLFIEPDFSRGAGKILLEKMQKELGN

Row | SMILES | % Inhibition @ 10 uM
1 | O=C(Cc1ccccc1)NCc1ccco1 | -4.4%
2 | Cc1ccc(C)c(NC(=O)Nc2ccc(Cl)cc2)c1 | -4.04%
3 | Cn1c(=O)c2c(nc(Cl)n2Cc2ccc(F)cc2Cl)n(C)c1=O | 1.64%
4 | COc1ccc(S(=O)(=O)N(CC(=O)NC2CCCCCC2)c2ccccc2)cc1OC | -2.21%
5 | Brc1ccc(/C=N/n2cnnc2)o1 | -5.7%
6 | Oc1nc2ccccc2nc1-c1ccccc1NCc1ccc(F)cc1 | 5.68%
7 | CC(C)NCC(O)COc1ccc(C(C)(C)C)cc1 (centres unmarked) | 3%
8 | COc1ccc2nc(N3CCCC(C(=O)NCCCN4C(C)CCCC4C)C3)sc2c1 (centres unmarked) | -2.12%
9 | CCN1CCN(C(=O)c2ccc(NS(=O)(=O)c3c(C)c(C)cc(C)c3C)cc2)CC1 | -2.85%
10 | COc1ccc(Cl)cc1-c1noc(-c2ccc3c(c2)OCO3)n1 | -0.671%
11 | CNS(=O)(=O)c1ccc(N2CCCC2=O)cc1 | -0.128%
12 | Cc1ccccc1CN(c1ccc(C(=O)N2CCC(C)CC2)cc1)S(C)(=O)=O | 2.05%
13 | CCc1cccc(CC)c1NC(=O)CN1C(=O)c2ccccc2S1(=O)=O | -7.94%
14 | O=C(Nc1ccc(N2CCN(C(=O)c3cccs3)CC2)cc1)c1cccnc1Cl | -0.872%
15 | O=C(Nc1ccc(Cl)cc1Cl)c1ccc(C(=O)Nc2ccc(Cl)cc2Cl)cc1 | -0.856%
16 | N#CCNC(=O)[C@H](CNS(=O)(=O)c1ccccc1)NC(=O)N1CCOCC1 | -0.214%
17 | Cc1ccc(OCc2nnc(NC(=O)c3ccccc3C)s2)c(C)c1 | 20.7%
18 | CCCCc1c(C)nc2ccc(OC)cc2c1O | 1%
19 | CN1CCN(C2CC(=O)N(c3ccc(Oc4ccccc4)cc3)C2=O)CC1 (centres unmarked) | -4.15%
20 | O=C(NCCCN1CCCC1=O)c1cc2c(O)nc3ccccc3c2s1 | 1.23%
21 | C=CCNC(=O)c1c(C)c(C(=O)OCC)n(Cc2ccccc2)c1C | -3.44%
22 | COc1ccc(-c2ccccc2)cc1NCc1c(F)cccc1Cl | -4.14%

Row | SMILES | % Inhibition @ 10 uM
23 | COC1=CCC2=C(CCNC2Cc2ccc(O)cc2)C1 (centres unmarked) | 2.5%
24 | CCOC(=O)C1=C(CS(=O)(=O)c2ccc(C)c(C)c2)NC(=O)NC1c1ccc(F)cc1 (centres unmarked) | 4.41%
25 | CN(CCNC(=O)C1CCN(S(=O)(=O)c2cccc3nonc23)CC1)Cc1ccccc1 | 3.5%
26 | Cc1ccc(OCC(=O)Nc2ccc(CN3CCCCC3)cc2)cc1 | -3.49%
27 | Cc1cc(C)nc(SCCC(=O)Nc2ccccc2)n1 | -3.45%
28 | CCOC(=O)C1=C(CS(=O)(=O)c2ccc(C)c(C)c2)NC(=O)NC1c1ccc(C)cc1 (centres unmarked) | -5.79%
29 | CCOc1cc(C2Nc3ccc4ccccc4c3C3=C2C(=O)CC(C)(C)C3)ccc1O (centres unmarked) | 9.67%
30 | O=C(NCCCN1CCOCC1)C1CCN(S(=O)(=O)N2CCCCC2)CC1 | -3.12%
31 | COc1cc(OC)c(CN2CCCC2)cc1Br | -7.56%
32 | Cc1ccc(C(=O)CCC(=O)Nc2ccccc2C)cc1C | -0.478%
33 | COc1ccccc1C1CC2=NC(C)=C(C(=O)OC(C)C)C(c3cccs3)C2=C(O)C1 (centres unmarked) | -5.01%
34 | Nc1n[nH]c(Cc2n[nH]c(N)n2)n1 | 1.84%
35 | O=C(NC1CC1)C1CSC(c2cccnc2)=N1 (centres unmarked) | 1.27%
36 | COCCNC(=O)c1ccccc1F | -1.15%
37 | COc1ccc(OC)c(S(=O)(=O)NCc2ccccn2)c1 | 5.67%
38 | N#CC1=C(N)Oc2c(ccc3ccccc23)C1c1ccccc1C(F)(F)F (centres unmarked) | -4.04%
39 | C/C(Cl)=C\CSc1nc2c(c(=O)[nH]c(=O)n2C)n1Cc1cccc(Br)c1 | 11.6%
40 | O=C(Nc1nccs1)c1ccc2c(c1)CC(c1ccccc1)OC2=O (centres unmarked) | 3.81%
41 | N#CCCn1c(-c2ccccc2)cc2ccccc21 | -8.3%
42 | CC(=O)c1ccc(N(CN2C(=O)c3ccc(Br)cc3C2=O)C(C)=O)cc1 | 14.4%
43 | CCCOc1ccc(S(=O)(=O)NCc2ccc3c(c2)OCO3)cc1 | -6.39%
44 | O=C(COc1ccccc1)Nc1ccc(F)cc1 | 3.74%

Row | SMILES | % Inhibition @ 10 uM
45 | COc1ccc(S(=O)(=O)NCc2ccc(C(=O)N3CCc4ccccc4C3)cc2)cc1 | -1.76%
46 | Cc1ccc(C)c(NC(=O)c2ccco2)c1 | -9.82%
47 | O=C1CC(c2ccccc2)CC(=O)C1=CNc1ccc(Br)cc1 (centres unmarked) | -4.61%
48 | CC(C)(C)c1ccc2c(c1)C1c3ccc(C(C)(C)C)cc3C2C2C(=O)N(c3ccc(Oc4ccc(Br)cc4)cc3)C(=O)C12 (centres unmarked) | -3.38%
49 | CCCN(c1ccccc1C)S(=O)(=O)c1ccc(Cl)cc1 | 3.61%
50 | CCOC(=O)N1CCC(N2Cc3cccc(C(=O)NC(C)c4ccc5c(c4)OCCO5)c3C2=O)CC1 (centres unmarked) | 24.6%
51 | COc1ccc(-n2nc3c(N4CCCC(C(=O)NCc5ccccn5)C4)nnc(C)c3c2C)cc1 (centres unmarked) | -2.87%
52 | CC(C)C[C@H](NC(=O)c1cc(-c2ccco2)c(Cl)s1)C(=O)NCC#N | -1.82%
53 | CCOC(=O)c1cc(-c2ccc(F)cc2)n(CC(=O)Nc2cccnc2)c1C | -1.88%
54 | Oc1cccc(CN2CCN(c3cccc(C(F)(F)F)c3)CC2)c1 | -6.47%
55 | O=C1NC(=O)C2(COC3(CCCC3)OC2)S1 | -5.68%
56 | O=C(Nc1cnc2ccccc2c1)N1CCCCCC1 | -3.33%
57 | O=S(=O)(c1ccc(Cl)cc1)n1c(COc2ccc(Cl)cc2Cl)nc2ccccc21 | -1.74%
58 | O=C(CSc1nc2ccccc2[nH]1)c1cccc([N+](=O)[O-])c1 | 4.89%
59 | Cc1ccc(OCC(=O)O/N=C(\N)Cc2cccs2)c(Br)c1 | 2.03%
60 | COc1ccc(C(=O)Nc2ccccc2)cc1N | -0.771%
61 | Cc1ccc2oc(-c3ccccc3)c/c(=N\CCN(C)C)c2c1 | 3.87%
62 | COc1cc(S(=O)(=O)n2cnc3cc(C)c(C)cc32)ccc1Cl | 3.15%
63 | CC(=O)c1ccc(NC(=O)c2cccc(F)c2)cc1 | -1.57%
64 | O=C(O)c1cc(-c2ccc(Br)cc2)nc2ccccc12 | -0.807%
65 | CN1C(=O)CC(N2CCN(Cc3ccccc3)CC2)C1=O (centres unmarked) | 2.38%
